Reference: PubChem BioAssay AID1476 (National Center for Advancing Translational Sciences (NCATS), 2009)
Values joined by “and” are separate entries in the source; they are usually repeats but may differ in a detail not shown here. Equal values may be shown once. Screen size: about 200,000 compounds; about 4,500 (2.2%) were called active. The shares of active, inactive and inconclusive entries below differ from those in the screen. The call rests on the fitted dose curve; in most records, active means well fitted inhibition curve with a large enough effect; inconclusive means small, poorly fitted or top-dose-only effect, or effect the other way; inactive means flat fitted curve, though single readings scatter. Potencies of inconclusive entries are doubtful fits and often do not repeat.

Biological target: Cruzipain (Trypanosoma cruzi) (UniProt P25779)
Experiment: qHTS Assay for Promiscuous and Specific Inhibitors of Cruzain (without detergent); further: nearly all actives have a fitted effect of over 40% in size;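 on max response, negative = inhibition: plate controls were enzyme without inhibitor for no effect and buffer without enzyme for full effect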
Settings: purified cruzain, Z-FR-AMC fluorescence, no detergent
In short: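 Detergent-free condition (0.00005% Triton X-100) in acetate buffer pH 5.5 with DTT. 1.5 nM enzyme and compound were pre-mixed 15 min, then 2 uM Z-FR-AMC substrate added; reaction progress from fluorescence change between first and third reads (60 s).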
Potency means the concentration at half of the fitted maximal effect; tags describe the fitted curve by direction and shape.

Sequence of UniProt P25779 (P25779 whole entry, looked up): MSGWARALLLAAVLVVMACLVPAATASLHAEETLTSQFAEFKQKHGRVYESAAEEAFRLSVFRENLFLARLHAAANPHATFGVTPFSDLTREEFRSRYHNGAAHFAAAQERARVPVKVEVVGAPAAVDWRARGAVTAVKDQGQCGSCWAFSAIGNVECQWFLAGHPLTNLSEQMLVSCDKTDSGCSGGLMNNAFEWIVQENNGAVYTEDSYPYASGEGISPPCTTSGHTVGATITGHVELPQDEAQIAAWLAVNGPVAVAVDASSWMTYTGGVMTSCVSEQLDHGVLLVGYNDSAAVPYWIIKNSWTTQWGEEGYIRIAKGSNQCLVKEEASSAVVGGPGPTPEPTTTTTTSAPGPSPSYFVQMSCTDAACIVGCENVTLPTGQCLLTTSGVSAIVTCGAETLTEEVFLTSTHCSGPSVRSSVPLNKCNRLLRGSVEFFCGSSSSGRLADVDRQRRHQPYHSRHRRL

Row | SMILES | Potency | max response, negative = inhibition
1 | CC(Sc1nc(N2CCOCC2)c2c(c1C#N)CC(C)(C)OC2)C(=O)Nc1ccccc1 (stereo unspecified) | inconclusive: 31.6 µM [activator, single point] | 
2 | Cc1ccc(NC(=O)CNC(=O)c2ccccc2F)cc1Cl | inconclusive: 25.1 µM [inhibitor, single point] | 
3 | CCCNC(=O)Cn1c(=O)/c(=C\c2ccc(-c3cccc([N+](=O)[O-])c3)o2)s/c1=C\C(=O)C(C)(C)C | inconclusive: 10 µM [inhibitor, partial curve, poor fit] | 
4 | CCOC(=O)c1c(-c2ccc(C)o2)csc1NC(=S)NC(=O)c1cccs1 | active: 25.1 µM | 
5 | O=C(CSc1nnc(COc2ccc3c(c2)CCCC3)o1)Nc1ccc(F)cc1 | active: 25.1 µM | 
6 | CCOc1ccccc1NC(=O)Cn1cnc2c1c(=O)n(C)c(=O)n2C |  | inactive: 1.34%
7 | O=C(Nc1ccc(-c2nc3ccccc3s2)c(O)c1)C1=COCCO1 | inconclusive: 39.8 µM [inhibitor, single point] | 
8 | Cc1cc(C)cc(-n2c3nc4ccccc4nc3c3c(=O)n(Cc4ccco4)cnc32)c1 | inconclusive: 15.8 µM [activator, partial curve] | 
9 | CCOc1cc(/C=N/NC(=O)CSc2nncn2C)ccc1OC(=O)c1ccc(Cl)cc1 | inconclusive: 39.8 µM [activator, single point] | 
10 | CCCCNc1nc(C)nc2c1nc(C)n2CCC |  | inactive: 0.959%
11 | Cc1ccc(Nc2nc3ccc(C)cc3nc2-n2nc(C)cc2C)c(C)c1 |  | inactive: -9.88%
12 | COc1ccc(-n2c(Cc3cccn3C)nnc2SCC(=O)NCc2ccc(F)cc2)cc1 | inconclusive: 31.6 µM [activator, single point] | 
13 | COc1cccc(C(c2sc3nc(-c4ccco4)nn3c2O)N2CCOCC2)c1 (stereo unspecified) |  | inactive: -0.337%
14 | CCN(CC)C(=O)Cn1nc(-c2ccccc2O)nc1SCC(=O)Nc1ccc(OC)cc1 | inconclusive: 39.8 µM [activator, single point] | 
15 | Cc1ccc(C(=O)N/C(=C\c2cn(-c3ccccc3)nc2-c2ccccc2)C(=O)N2CCOCC2)cc1 | inconclusive: 39.8 µM [activator, single point] | 
16 | O=S(=O)(NCCc1nnc2ccc(SCc3ccc(C(F)(F)F)cc3)nn12)c1ccccc1 | inconclusive: 39.8 µM [activator, single point] | 
17 | O=C(Nc1nc2ccc(Cl)cc2s1)c1ccco1 | inconclusive: 39.8 µM [inhibitor, single point] | 
18 | COc1ccc(-c2nc3cnc(Nc4cccc(OC)c4)nc3n(C)c2=O)cc1 | inconclusive: 20 µM [inhibitor, partial curve] | 
19 | COS(C)(=O)=O |  | inactive: 0.181% and inactive: 0.292%
20 | CCOC(=O)c1cccc(NC(=O)Cn2c(CC(=O)N3CCCC3)nc3ccccc32)c1 | inconclusive: 39.8 µM [activator, single point] | 
21 | COCCCNC(=O)c1c(N)n(-c2cccc(S(N)(=O)=O)c2)c2nc3ccccc3nc12 | inconclusive: 10 µM [activator, single point] | 

Row | SMILES | Potency | max response, negative = inhibition
22 | Cc1oc2ccc(O)c(CN3CCN(Cc4ccccc4)CC3)c2c1C(=O)Nc1ccccc1 |  | inactive: -4.34%
23 | Cc1ccccc1OCC(=O)N/N=C/c1cccc(Oc2ccc([N+](=O)[O-])cc2[N+](=O)[O-])c1 | inconclusive: 39.8 µM [inhibitor, single point] | 
24 | CCc1ccc(NC(=O)C2CCC(CNS(=O)(=O)c3ccc4c(c3)CC(C)N4C(C)=O)CC2)cc1 (stereo unspecified) | inconclusive: 12.6 µM [activator, partial curve] | 
25 | COc1ccc(C)c2sc(N(Cc3cccnc3)C(C)=O)nc12 | inconclusive: 39.8 µM [activator, single point] | 
26 | NC(=O)C(CC(=O)O)NC(=O)[C@@H]1CCCNc2c(I)cc([N+](=O)[O-])cc2C(=O)N[C@@H](CO)C(=O)N[C@@H](Cc2ccc(O)cc2)C(=O)N1 (stereo partly specified) | inconclusive: 39.8 µM [activator, single point] | 
27 | CCCN1C(=O)c2[nH]nc(-c3ccccc3O)c2C1c1ccc(OCc2ccccc2)c(OCC)c1 (stereo unspecified) | inconclusive: 39.8 µM [inhibitor, single point] | 
28 | COc1ccc(NC(=S)N2CCN(CCN=CC3=C(O)CC(c4ccccc4)CC3=O)CC2)cc1 (stereo unspecified) | inconclusive: 39.8 µM [activator, single point] | 
29 | CCOC(=O)c1ccc(N2CCN(c3ccccc3F)CC2)c(NC(=O)Nc2ccc(Cl)c(Cl)c2)c1 |  | inactive: 1.85%
30 | CN(C)C(=O)[C@]1(C)C[C@H]1[C@H](NC(=O)CNC(=O)[C@@H]1CCCN1C(=O)[C@]1(C)C[C@H]1[C@H](NC(=O)OCc1ccccc1)c1ccccc1)c1ccccc1 | inconclusive: 12.6 µM [activator, partial curve] | 
31 | COc1cc(OC)c(-c2nnc3n(CCc4ccccc4)c(=O)c4ccccc4n23)cc1OC | inconclusive: 39.8 µM [activator, single point] | 
32 | O=C(O)[C@H]1[C@H]2C[C@H]3c4[nH]c5ccccc5c4CCN3C[C@@H]2CC[C@@H]1O |  | inactive: 9.48%
33 | COc1ccc(S(=O)(=O)N2CCOCC2)cc1NC(=O)Cc1ccc(Cl)c(Cl)c1 | inconclusive: 39.8 µM [activator, single point] | 
34 | COc1cc(C(=O)CC2(O)C(=O)N(Cc3ccccc3Cl)c3ccccc32)cc(OC)c1OC (stereo unspecified) | inconclusive: 31.6 µM [activator, single point] | 
35 | CCn1c(-c2csc(-c3ccccc3)n2)n[nH]c1=S | inconclusive: 39.8 µM [inhibitor, single point] | 
36 | COc1ccc(CC(=O)NC2CC(=O)N(c3cccc(F)c3)C2)cc1 (stereo unspecified) |  | inactive: 3.52%
37 | Cc1ccc(-c2nnc(Nc3ccc(Br)cc3)c3ccccc23)cc1S(=O)(=O)N1CCN(C)CC1 |  | inactive: -9.22%
38 | Cc1ccc(NC(=O)CSc2nc(C)c(Cc3ccccc3)c(=O)[nH]2)cc1C | inconclusive: 39.8 µM [inhibitor, single point] | 
39 | CCN(CC)c1ccc(NC(=O)/C=C/c2cc(Br)ccc2OC)cc1 | active: 25.1 µM | 
40 | Cc1ccc(C)c2[nH]c(=O)c(CN(Cc3ccco3)S(=O)(=O)c3ccc4c(c3)OCCO4)cc12 | inconclusive: 20 µM [inhibitor, partial curve] | 
41 | CC(=O)N1c2c(cc(Br)cc2S(=O)(=O)N2CCN(C(=O)c3ccco3)CC2)CC1C (stereo unspecified) | inconclusive: 39.8 µM [activator, single point] | 
42 | COc1ccc(C(=O)CSc2nc3ccc([N+](=O)[O-])cc3[nH]2)cc1 | inconclusive: 39.8 µM [inhibitor, single point] | 

Row | SMILES | Potency | max response, negative = inhibition
43 | O=C(N/N=C/c1cc2ccccc2nc1Cl)/C(=C/c1cccs1)NC(=O)c1ccccc1 | active: 25.1 µM | 
44 | CCN(CC)S(=O)(=O)c1ccc(C(=O)OCC(=O)Nc2ccc(-c3nc4ccc(C)cc4s3)cc2)cc1 | inconclusive: 3.98 µM [inhibitor, full curve] | 
45 | COc1ccc(OC)c(C(=O)c2c(N)c(-c3nc(-c4ccc(C)c(C)c4)cs3)c3ccccn23)c1 |  | inactive: -5.99%
46 | CN(C)c1ccc(N=Cc2nc(-c3ccccc3)oc2OC(=O)c2ccccc2)cc1 | inconclusive: 31.6 µM [inhibitor, single point] | 
47 | CCc1ccccc1NC(=O)Cn1ccn(-c2cc(C)cc(C)c2)c(=O)c1=O | inconclusive: 39.8 µM [activator, single point] | 
48 | COc1cccc(-c2nn(C)c3sc(C(=O)NCc4ccccn4)cc23)c1 | inconclusive: 31.6 µM [activator, single point] | 
49 | COc1ccc(Cn2nnc3c(=O)[nH]c(C4CCCN(C(=O)c5ccc(C)cc5)C4)nc32)cc1 (stereo unspecified) | inconclusive: 39.8 µM [activator, single point] | 
50 | COc1ccc(C(=O)COC(=O)C(CCCCN2C(=O)C3C4C=CC(C4)C3C2=O)N2C(=O)C3C4C=CC(C4)C3C2=O)cc1 (stereo unspecified) | inconclusive: 31.6 µM [activator, single point] | 
51 | CCOc1ccc(OCC)c(NC(=O)CSc2nc3cccnc3n2C)c1 | inconclusive: 39.8 µM [activator, single point] | 
52 | COc1ccc(CCNC(=O)Cn2c(=O)n(-c3ccc(C)c(C)c3)c(=O)c3c(C)c(C)sc32)cc1OC | inconclusive: 6.31 µM [activator, single point] | 
53 | CCC1CSC(Nc2ccc(C(=O)/C=C/c3ccc(OC)c(OC)c3)cc2)=N1 (stereo unspecified) | inconclusive: 39.8 µM [inhibitor, single point] | 
54 | CCCCc1ccc(NC(=O)Cn2nnc3sc4c(c3c2=O)CCC(C)C4)cc1 (stereo unspecified) |  | inactive: -10.6%
55 | Cc1ccc(C(=O)c2oc3ccccc3c2NC(=O)Cc2coc3cc(C)ccc23)cc1 |  | inactive: -8%
56 | O=C(CSc1nc2ccccc2o1)Nc1nc2ccc(Br)cc2s1 | active: 10 µM | 
57 | CCC(=O)N1c2ccccc2CC1C(=O)NCc1cccc(C)c1 (stereo unspecified) |  | inactive: 3.16%
58 | Cc1cc(=O)oc2cc(OCC(=O)NCc3ccccn3)ccc12 |  | inactive: 2.38%
59 | Cc1ccccc1-c1nc(CS(=O)CC(=O)N2CCN(c3cc(Cl)ccc3C)CC2)c(C)o1 (stereo unspecified) | inconclusive: 25.1 µM [activator, partial curve] | 
60 | Cc1ccc(-n2nc3c(c2NC(=O)c2cccs2)CSC3)cc1 | inconclusive: 31.6 µM [inhibitor, single point] | 
61 | Cc1ccc(C2(C(F)(F)F)NC(=O)N3C(=C2C#N)Nc2ccccc23)cc1 (stereo unspecified) | inconclusive: 25.1 µM [inhibitor, single point] | 
